# Results published in PMC12040169 (PLOS Biology, 2025).
# This is one part of the list.
# System: T1, C. trachomatis L2/434/Bu expressing GFP (CTL2-GFP)
# T1 construct: L2/434/Bu GFP intracellular growth in HeLa cells
# Set-up: species or system HeLa; C. trachomatis total inclusion area by high-content imaging, normalised to DMSO
# Details: total inclusion area; 28.5 h, 10 µM; inhibitor
# Summary of the method: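 Bulk GFP and resorufin signals were read first. Wells were then fixed, stained with Hoechst and imaged to detect GFP inclusions and host nuclei. MICs followed the previously described calculation.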
row,SMILES,% of control remaining
1,C=CCC1(CC=C)CCN1C(=O)c1cc(-c2ccccn2)n[nH]1 [CBK282448],109.59
2,CCN(Cc1ccncc1)C(=O)Nc1ccc2[nH]ccc2c1 [CBK155136],111.232
3,O=C(CSc1nnc(-c2ccccc2)n1-c1ccccc1)N/N=C/c1coc2ccccc2c1=O [CBK262791],94.4339
4,COc1cccc2c3c([nH]c12)C1(CCN(CCOc2ccccc2)CC1)N(C=O)CC3 [CBK039423],72.5568
5,CC(C)[C@H](CO)NC(=O)c1cnc(-c2ccc(Cl)cc2)c(-c2ccco2)c1 [CBK036658],83.6983
6,Cc1ccccc1CSCC(=O)Nc1ccc(S(=O)(=O)N2CCCCC2)cc1 [CBK264006],51.9376
7,CC(C)(C)OC(=O)N1CCC(N(CCC(F)(F)F)Cc2ccc(-c3ccc(S(C)(=O)=O)cc3)nc2)CC1 [CBK167262],73.9062
8,COc1cc(-c2cnc3[nH]c(=O)n(CCc4ccncc4)c3n2)cc(OC)c1OC [CBK064620],113.409
9,CC(=O)N1CCc2sccc2C1c1ccccc1NC(=O)C1CC1 (stereo not shown) [CBK282903],84.7862
10,Cc1cc(C)cc(OCc2nnc(SCC(=O)Nc3cc(C(F)(F)F)ccc3Cl)o2)c1 [CBK267890],86.8753
11,COc1ccc(/C=N/c2cc(S(=O)(=O)c3ccc(O)c(/N=C/c4ccc(OC)c(O)c4)c3)ccc2O)cc1O [CBK261223],92.6746
12,Cn1c(=O)oc2cc(NC(=O)CC3CCN(Cc4cccc(C(F)(F)F)c4)CC3)ccc21 [CBK285953],126.413
13,Cn1cc(C(=O)NC2CCN(C(=O)c3cccc(C#N)c3)CC2)cn1 [CBK305673],37.427
14,Cc1nc(=O)c(-c2ccccc2)c(C)n1-c1ccc2cn[nH]c2c1 [CBK288193],82.9867
15,NC(=O)CC[n+]1ccc2ccccc2c1 [CBK022857C],54.4536
16,NC1=NNC2=C(c3ccc(Cl)cc3Cl)NNN12 [CBK093660],92.7528
17,O=C(c1ccc(F)cc1)[C@H]1CCCN(C(=O)c2cc(C3CC3)n[nH]2)C1 [CBK282410],90.8136
18,O=C(Nc1ccc2ncccc2c1)c1cccc(F)c1Cl [CBK159800],91.3526
19,CCN(CC)c1ccc(CN(CCCN(C)C)C(=O)NCC2CCCCC2)cc1 [CBK159392],59.2442
20,O=C(NC1CCCC1)c1ccc2c(c1)C(=O)N(CC1CCCO1)C2=O (stereo not shown) [CBK269777],75.5058
21,CC(C)NC(=O)N1C[C@@H]2C[C@H](C1)c1ccc(-c3cccnc3)c(=O)n1C2 [CBK289184],119.84
22,O=C(NCc1ccc(F)cc1)NC(=O)C1CCN(CCc2ccc(Br)cc2)CC1 [CBK034836],95.1984
23,O=C(Nc1ccncc1)c1cnn(-c2ccc(Cl)cc2)c1C(F)(F)F [CBK107441],110.991
24,CC(C)(C)CC(=O)NS(=O)(=O)c1cccc(-c2nnco2)c1 [CBK305258],78.0636
25,Cn1c(N2CCOCC2)nc2cc(C(=O)NCCn3cccn3)ccc21 [CBK307033],67.2747
26,CN(C)C(=O)COc1cccc(Nc2nc(-c3cccc4ccccc34)cn3ccnc23)c1 [CBK037393],127.195
27,Nn1cnn2c(SCc3ccc(Cl)cc3)nnc12 [CBK263193],95.1434

row,SMILES,% of control remaining
1,CC1CCCN(CCCNS(=O)(=O)c2ccc(N3CCCC3=O)cc2)C1 (stereo not shown) [CBK304213],92.0926
2,Brc1ccc2c(c1)COC1(CN3CCC1CC3)O2 (stereo not shown) [CBK105268],111.651
3,O=C1NCC2(C/C=C/CCOc3ccccc31)CCN(C(=O)Cc1cccc(F)c1)CC2 [CBK292015],90.7576
4,Cc1n[nH]c(C)c1-c1ccc2c(cnn2C)c1 [CBK307314],48.1253
5,Cc1cc(NC(=O)C(C)(C)C)nc2c1c(=O)oc1ccccc12 [CBK287443],86.6134
6,CC(C)(C)OC(=O)N1CCC(C(=O)NC[C@H](CC(=O)O)c2ccc(Cl)cc2)CC1 [CBK286691],64.403
7,COc1ccc(Cl)cc1C1(CNC(=O)C2CCC(N)C2)CCOCC1 (stereo not shown) [CBK305523],28.8238
8,CS(=O)(=O)c1ccccc1C(=O)n1ccn(-c2cccc(C(F)(F)F)c2)c1=O [CBK106584],83.9096
9,CCOC(=O)COc1ccc(C#N)cc1OCC [CBK058937],76.6355
10,CC(C)[C@H]1CN(Cc2ccco2)CCN1C(=O)N1CCOCC1 [CBK284273],80.6909
11,Cn1ccnc1C(NC(=O)C1C2CCCCC21)c1ccc(F)cc1 (stereo not shown) [CBK281441],89.1037
12,CCN(CC)C(=O)Cn1nc(C)n2c(cc3sccc32)c1=O [CBK284044],104.162
13,O=C(c1nc2ccccc2s1)C1CCN(C(=O)CCc2ccc(-c3ccccc3)o2)CC1 [CBK286170],82.7832
14,Cc1cc(NC(=O)c2ccc(OC(C)C)cc2)no1 [CBK287575],96.9983
15,O=C(O)COc1cccc(NC(=O)c2ccccc2)c1 [CBK264602],111.229
16,O=S(=O)(NC1CCN(Cc2ccccc2)CC1)c1cccc2nsnc12 [CBK062029],84.6055
17,CCN(CC)c1ccc(/C=N/NC(=O)CC2=NNC(=O)C2)cc1 [CBK020059],115.366
18,Cc1[nH]nc(-c2ccc(O)c(C)c2O)c1Oc1ccc(F)cc1 [CBK264478],83.2583
19,COc1ccc(C2(C(=O)Nc3ccc(-c4ccccc4OC)cc3)CCOCC2)cc1 [CBK285710],88.4162
20,COc1ccc(-c2nc(-c3ccc(C#N)cc3)cnc2N)cc1OC [CBK063885],64.5384
21,O=C(Nc1ccccc1C(=O)Nc1ccccc1C(=O)O)c1ccccc1 [CBK261551],88.0466
22,Cn1nc(C(=O)NCCSc2n[nH]c(=O)[nH]c2=O)c2ccccc2c1=O [CBK297501],98.4436
23,O=C(NC1(c2ccccc2)CC1)c1cc(-n2cnnc2)ccc1Cl [CBK282777],82.2997
24,CCCCn1cc(CN(C)C)c2c(C)ccnc21 [CBK008697],45.9488
25,COc1ccc(C(C)C)cc1-c1cnc2nc(O)ccc2c1 [CBK081286],55.9109
26,O=[N+]([O-])c1ccc(N2CCNCC2)cc1NCc1ccccn1 [CBK268074],126.223
27,O=C(O)CCCCn1c2c(c3ccccc31)CCCC2 [CBK000253],94.3653

row,SMILES,% of control remaining
1,CC1CCN(Cc2ccc(-c3cn(CC(=O)NCc4ccc(OC(F)(F)F)c(F)c4)nn3)cc2)CC1 [CBK167536],27.9695
2,COc1ccccc1CN(C)C(C)=O [CBK024120],84.6653
3,O=C(O)/C(=C\c1ccc(Cl)cc1)NC(=O)c1ccccc1I [CBK265701],97.7796
4,NS(=O)(=O)c1ccc(NC(=O)c2cc([N+](=O)[O-])ccc2N2CCOCC2)cc1 [CBK268972],102.519
5,COc1cncc(-c2ccc(Nc3ccc(OC)nc3)nc2)c1 [CBK037773],145.347
6,C#CCNC(=O)c1nn(Cc2ccc(CN3C(=O)CCC3=O)cc2)c2ccc(OC)cc12 [CBK048668],108.58
7,Cc1ccc(C2(O)CC3CCC(C2)N3C(=O)C2CCC2)cc1 (stereo not shown) [CBK103860],95.5603
8,COc1ccnc(N2CCCN(CCN3CCOCC3)CC2)n1 [CBK084120],79.9134
9,O=c1c2ccsc2ncn1Cc1nnc(-c2ccc(Br)o2)o1 [CBK295642],82.7483
10,O=S(=O)(Cc1cccc(F)c1F)c1cc2c(N3CCNCC3)nccc2s1 [CBK045690C],78.9034
11,COc1ccc(-c2cc3cccnc3n2CC(=O)NC(C)C)cc1 [CBK285380],120.247
12,Cc1nc2c(C(=O)N3CCOCC3)cnn2c(C)c1Cc1ccccc1 [CBK162201],71.338
13,c1ccc(CCNc2cncc(-c3cccs3)n2)nc1 [CBK065510],119.278
14,O=C(COc1ccc(Cl)cc1)NCCc1ccc(S(=O)(=O)NC(=O)NC2CCCCC2)cc1 [CBK013261],110.986
15,Cc1cc(C(=O)NCCn2nc(C)c(C)c2C)c2cccc(C)c2n1 [CBK281388],88.1379
16,Cc1csc(C(Cc2ccsc2)NC(=O)c2ccc(=O)[nH]c2)n1 (stereo not shown) [CBK285109],94.4576
17,COc1ccc(NC(=O)c2ccc(-c3ccc(Nc4ccc5c(c4)OCCO5)nc3)cc2)cc1 [CBK036815],101.632
18,CC1Cc2ccccc2N1CCNC(=O)Cc1cn2ccsc2n1 (stereo not shown) [CBK306499],141.357
19,CC(C)(C)NC(=O)NC1CCC2(CC1)CC(=O)c1ccccc1O2 (stereo not shown) [CBK283390],70.1434
20,CN(C)C(=O)C1(Cc2ccccc2-c2cccnc2)CCN(Cc2ccccc2)CC1 [CBK285522],94.5299
21,O=C(O)CCC(=O)c1c[nH]c2ccccc12 [CBK261275],90.3455
22,Cc1ccn2c(=O)cc(COC(=O)c3sc4nc(C)cc(C)c4c3N)nc2c1 [CBK297783],92.7581
23,Cc1nn(C)cc1-c1cncn1C(C)Cc1c(C)nn(C)c1C (stereo not shown) [CBK281786],96.3398
24,CS(=O)(=O)N(CC(=O)N1CCN(Cc2ccc3c(c2)OCO3)CC1)c1cccc(C(F)(F)F)c1 [CBK265329],81.4528
25,c1cc(OCCN2CCCC2)c2cc[nH]c2c1 [CBK083478],86.6629
